No constants are given. Whether binding was seen depends on the method and setting. For some assays here: Binding seen in cells or lysates may run through a third protein. Some binding calls cover weakened binding; strength is not graded here.

Amino acid sequences for entries named in this document (tags omitted).
UniProt O35129: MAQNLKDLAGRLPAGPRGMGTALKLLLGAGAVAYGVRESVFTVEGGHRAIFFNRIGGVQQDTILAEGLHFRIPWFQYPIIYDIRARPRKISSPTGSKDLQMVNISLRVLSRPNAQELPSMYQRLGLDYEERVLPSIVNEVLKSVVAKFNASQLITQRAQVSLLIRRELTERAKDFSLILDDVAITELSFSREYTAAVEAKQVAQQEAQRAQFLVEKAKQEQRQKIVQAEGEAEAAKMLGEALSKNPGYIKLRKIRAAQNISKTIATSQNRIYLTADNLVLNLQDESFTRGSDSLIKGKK

Experiment [1] concerns the target T1, cytochrome P450 side chain cleavage enzyme (mouse (endogenous in MA-10)) (UniProt Q9QZ82).
T1 sequence: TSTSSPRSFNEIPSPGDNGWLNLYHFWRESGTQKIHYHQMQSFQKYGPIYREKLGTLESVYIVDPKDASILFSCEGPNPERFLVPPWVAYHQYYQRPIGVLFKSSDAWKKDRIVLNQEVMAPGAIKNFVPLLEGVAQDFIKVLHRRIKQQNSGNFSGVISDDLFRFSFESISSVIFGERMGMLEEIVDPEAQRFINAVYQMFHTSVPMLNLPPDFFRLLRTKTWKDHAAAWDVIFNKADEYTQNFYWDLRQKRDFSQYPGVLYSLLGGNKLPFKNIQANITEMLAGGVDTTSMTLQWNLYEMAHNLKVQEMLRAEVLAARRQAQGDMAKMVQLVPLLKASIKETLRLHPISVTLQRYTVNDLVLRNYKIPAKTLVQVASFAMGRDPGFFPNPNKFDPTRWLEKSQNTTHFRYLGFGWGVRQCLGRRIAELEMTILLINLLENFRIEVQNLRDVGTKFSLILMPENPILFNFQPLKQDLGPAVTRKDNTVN
In words: co-IP; 10 uL protein-specific antibody to the bait added to 500 uL MA-10 cell lysate overnight at 4°C, Dynabeads protein G 2 h, 5 washes in ice-cold PBS, immunoblot; cells with or without db-cAMP (0.5 mM) or hCG (20 ng/mL).

Experiment [2] has as its target T2, prohibitin-1 (mouse (endogenous in MA-10)) (UniProt P67778).
T2 sequence: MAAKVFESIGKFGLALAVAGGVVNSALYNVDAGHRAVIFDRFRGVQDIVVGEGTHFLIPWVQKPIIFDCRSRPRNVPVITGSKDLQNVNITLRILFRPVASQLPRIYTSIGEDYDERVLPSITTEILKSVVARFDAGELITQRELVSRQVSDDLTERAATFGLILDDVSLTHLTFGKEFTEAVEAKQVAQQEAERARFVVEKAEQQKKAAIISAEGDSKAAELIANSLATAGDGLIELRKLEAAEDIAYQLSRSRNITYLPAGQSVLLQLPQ
The experiment is described as above.

In experiment [3] the target is T3, steroidogenic acute regulatory protein (mouse (endogenous in MA-10)) (UniProt P51557).
T3 sequence: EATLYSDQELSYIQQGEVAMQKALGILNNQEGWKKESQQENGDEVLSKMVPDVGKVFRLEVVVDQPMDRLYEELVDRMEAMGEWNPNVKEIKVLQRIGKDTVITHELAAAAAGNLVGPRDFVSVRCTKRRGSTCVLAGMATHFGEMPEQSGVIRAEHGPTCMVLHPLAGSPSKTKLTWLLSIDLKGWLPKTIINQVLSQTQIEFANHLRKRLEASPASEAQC
The experiment is described as above.

In experiment [4] the target is PHB2 (mouse (endogenous in MA-10)) (UniProt O35129). The experiment is described as above.
Experiment [5] has the same target. Description: native gel or EMSA; BN-PAGE of lysates of MA-10 cells with or without db-cAMP, immunoblot with anti-PHB1 and anti-PHB2.

Turning to PHB2 (from UniProt O35129 1-299), the binding result in experiment [1], in experiment [2] and in experiment [3] was “binds” each time.

B1: mitochondrial protease YME1L-1 (enzyme, UniProt O88967 1-715)
chain: MFSLSSTVQPQVTIPLSHLINAFHSPKNISVSVNTPVSQKQHRDTVPEHEAPSSEPVLNLRDLGLSELKIGQIDKMVENLLPGFYKDKRVSSCWHTSHISAQSFFENKYGHLDMFSTLRSSSLYRQHPKTLRSICSDLQYFPVFIQSRGFKTLKSRTRRLQSTSERLVEAQNIAPSFVKGFLLRDRGTDLESLDKLMKTKNIPEAHQDAFKTGFAEGFLKAQALTQKTNDSLRRTRLILFVLLLFGIYGLLKNPFLSVRFRTTTGLDSAVDPVQMKNVTFEHVKGVEEAKQELQEVVEFLKNPQKFTVLGGKLPKGILLVGPPGTGKTLLARAVAGEADVPFYYASGSEFDEMFVGVGASRIRNLFREAKANAPCVIFIDELDSVGGKRIESPMHPYSRQTINQLLAEMDGFKPNEGVIIIGATNFPEALDNALIRPGRFDMQVTVPRPDVKGRTEILKWYLNKIKFDKSVDPEIIARGTVGFSGAELENLVNQAALKAAVDGKEMVTMKELEFSKDKILMGPERRSVEIDNKNKTITAYHESGHAIIAYYTKDAMPINKATIMPRGPTLGHVSLLPENDRWNETRAQLLAQMDVSMGGRVAEELIFGTDHITTGASSDFDNATKIAKRMVTKFGMSEKLGVMTYSDTGKLSPETQSAIEQEIRILLRESYERAKHILKTHAKEHKNLAEALLTYETLDAKEIQIVLEGKKLEVR
For B1, the binding result in experiment [4] and in experiment [2] was “binds” throughout.

B2: prohibitin-1 (protein, UniProt P67778 1-272)
chain: T2 sequence
As to B2, the binding entry in experiment [5] is recorded as “binds”; in experiment [4] it was “binds”; in experiment [1] it was “no binding”; in experiment [3], “binds”.

B3: mitochondrial protease LonP1 (enzyme, UniProt Q8CGK3 66-949)
chain: LWDSGNRGGSDETSEGGAEDGATASTGEGPVVTALAPMTVPDVFPHLPLIAITRNPVFPRFIKIVEVKNKKLVELLRRKVRLAQPYVGVFLKRDDNNESDVVESLDEIYHTGTFAQIHEMQDLGDKLRMIVTGHRRIHISRQLEVEPEGLEPEAEKQKSRRKLKRGKKEVEDELGPKPQLEMVTEAATDTSKEVLMVEVENVAHEDFQVTEEVKALTAEIVKTIRDIIALNPLYRESVLQMMQAGQRVVDNPIYLSDMGAALTGAESHELQDVLEETNILKRLYKALSLLKKEFELSKLQQRLGREVEEKIKQTHRKYLLQEQLKIIKKELGLEKDDKDAIEEKFRERLRELVVPKHVMDVVDEELSKLALLDNHSSEFNVTRNYLDWLTSIPWGRQSDENLDLARAQAVLEEDHYGMEDVKKRVLEFIAVSQLRGSTQGKILCFHGPPGVGKTSIARSIARALGREYFRFSVGGMTDVAEIKGHRRTYVGAMPGKIIQCLKKTKTENPLVLIDEVDKIGRGYQGDPSSALLELLDPEQNANFLDHYLDVPVDLSKVLFICTANVIDTIPEPLRDRMEMINVSGYVAQEKLAIAERYLVPQARTLCGLDESKAQLSAAVLTLLIKQYCRESGVRNLQKQVEKVLRKAAYKIVSGEAQTVQVTPENLQDFVGKPVFTVERMYEVTPPGVVMGLAWTAMGGSTLFVETSLRRPQPSGSKEDKDGSLEVTGQLGDVMKESARIAYTYARAFLMEQDPENDFLVTSHIHLHVPEGATPKDGPSAGCTIVTALLSLALGQPVLQNLAMTGEVSLTGKVLPVGGIKEKTIAAKRAGVTCIILPAENRKDYSDLAPFITEGLEVHFVEHYRDIFPIAFPRREHREALAVER
With B3, the binding entry in experiment [4] and in experiment [2] was “binds” throughout.

For the origin of these results see article PMC9010647.
